Measured values taken from PubChem BioAssay (NCI).
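Five compound concentrations were applied to cells in 96-well plates for 48 hours; endpoints were derived by simple linear interpolation of the resulting dose-response curve. Abbreviation: GI50, concentration required for 50% inhibition of growth. Definition used: TGI = concentration required for complete inhibition of growth.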

tested on: NCI-H322M lung; experiment: growth of human tumour cells (NCI), 48 h

| Structure (SMILES) | GI50 | TGI |
| --- | --- | --- |
| COc1ccccc1/C=C/c1cccc(NC(=S)NCCCCN(C)C)c1 | 13.6 µM | 27.7 µM |
| CCOc1ccc(-c2cc(-c3cc(C(C)C)c(O)cc3C)nn2-c2ccc(S(N)(=O)=O)cc2)cc1 | 10.4 µM | 22.1 µM |
| CCc1ccccc1-c1nc(CN[C@@H]2C[C@@H]3C[C@H]([C@H]2C)C3(C)C)c(C)o1 | 1.97 µM | 5.05 µM |
